Test results published in PubChem BioAssay AID720542 (National Center for Advancing Translational Sciences (NCATS), 2013).
The campaign covered roughly 360,000 compounds. About 740 (0.21%) were called active. Inconclusive results, whose numbers are uncertain, are shown with a selection of clear calls. Calls come from the whole dose curve; as a rule, active = well fitted inhibition curve with a large enough effect; inconclusive = small, poorly fitted or top-dose-only effect; inactive = no such curve, though single readings can be large or run the other way. Potencies of inconclusive entries are left out as doubtful fits.
Note: nearly all actives have a fitted effect of over 45% in size.
Potency is the fitted concentration of half-maximal effect; tags give direction and shape of the fitted curve.
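Throughout, for activity change, negative = inhibition: 0% = vehicle wells and -100% = peptide control.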

What follows are molecules tested on Plasmodium falciparum AMA1 (3D7) - RON2 peptide interaction (assay: qHTS for Inhibitors of AMA1-RON; Towards Development of Antimalarial Drug Lead: Primary Screen). Details: AlphaScreen AMA1-biotinylated RON2 peptide binding; activity change, negative = inhibition: at 58.2 µM (top of the series) unless noted.
How it was run: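 AMA1 (3D7) with his tag at 25 nM final met compounds first, then biotinylated RON2 peptide at 25 nM; detection used donor plus acceptor beads, 10 µg/mL apiece, read by AlphaScreen after 30 min at room temperature.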
With `O=C(Cc1ccc(S(=O)(=O)N2CCOCC2)s1)Nc1cc(C(F)(F)F)ccc1N1CCCC1` the Potency was inconclusive [inhibitor, partial curve, poor fit]. In the case of `CC/C(=N\Nc1ccccc1[N+](=O)[O-])c1ccc(O)cc1`, the Potency is reported as active: 15.8 µM. With `Cc1nc(NC(=O)c2oc3ccccc3c2C)sc1C(=O)N(C)C` the “activity change, negative = inhibition” value was inactive: -1.05%. `c1ccc(CN2CCN(CCOCCOc3ccc4c(c3)CCC4)CC2)cc1` was tested, and the Potency was inconclusive [inhibitor, single point]. With `O=C1c2ccccc2C(Nc2ccc3c(c2)OCCO3)N1Cc1ccccc1` (stereo unspecified) the Potency was inconclusive [inhibitor, single point]. With `COc1ccc(NC(=O)C2(C)Cc3c(-c4ccc(N(C)C)cc4)ccnc3O2)cn1` (stereo unspecified) the Potency was inconclusive [inhibitor, single point]. In the case of `O=C1C2CC=CCC2C(=O)N1c1ccc(NCCc2ccc(O)cc2)c([N+](=O)[O-])c1` (stereo unspecified), the Potency is reported as inconclusive [inhibitor, partial curve]. In the case of `COc1ccc(C)cc1Nc1n[n+](-c2ccccc2)c(-c2c(OC)ccc3ccccc23)s1`, the Potency is reported as inconclusive [inhibitor, partial curve]. `CN1/C(=C\C(=O)c2cccc(S(=O)(=O)N3CCCCC3)c2)C(C)(C)c2ccccc21` was tested, and the “activity change, negative = inhibition” value was inactive: 10.9%. With `O=C(c1ccccc1)c1ccc(OCCOCCN2CCN(Cc3ccccc3)CC2)cc1` the Potency was inconclusive [inhibitor, partial curve]. In the case of `CC1=CC(=C(C#N)C#N)c2ccccc2N1C`, the “activity change, negative = inhibition” value is reported as inactive: 0.442%. With `Cc1ccccc1N1CCN(Cc2ccc3c(c2)OCO3)CC1` the Potency was inconclusive [inhibitor, single point]. In the case of `O=[N+]([O-])c1cccc2ccc(/C=C/c3ccc(Cl)cc3)nc12`, the Potency is reported as inconclusive [inhibitor, partial curve]. For `Cc1[nH]ccc2c1[nH]c1cc(=O)ccc12`, the “activity change, negative = inhibition” value was inactive: 5%. For `Cc1cc(C)c(N=Cc2c(O)[nH]c(=O)[nH]c2=O)c(C)c1`, the “activity change, negative = inhibition” value was inactive: 9.49%. For `CCOc1ccccc1NC(=O)CN(c1ccc(C)cc1)S(=O)(=O)c1c(C)n[nH]c1C`, the Potency was inconclusive [inhibitor, full curve, poor fit]. With `COc1ccc(OCC#CCN2CCCCCC2)cc1` the activity change, negative = inhibition was inconclusive: -21.6% [inhibitor]. In the case of `O=S(=O)(Nc1cccc2c1ccc1cccn12)c1cccs1`, the Potency is reported as inconclusive [inhibitor, full curve, poor fit]. In the case of `CCC1(c2ccccc2)NC(=O)N(CC(=O)Nc2cccc(S(=O)(=O)N3CCCC3)c2)C1=O` (stereo unspecified), the “activity change, negative = inhibition” value is reported as inactive: 4.73%. For `Cc1[nH]n(-c2ccccc2)c(=O)c1N=Nc1ccccc1`, the Potency was inconclusive [inhibitor, full curve]. In the case of `C=CCN(CC=C)C(=S)Nc1ccc2nsnc2c1`, the “activity change, negative = inhibition” value is reported as inactive: 5.21%. In the case of `O=C(c1cccc(F)c1)N1CCC(N2CCCCCC2)CC1`, the Potency is reported as inconclusive [inhibitor, partial curve, poor fit]. `Cc1ccc(Nc2nc(N)c([N+](=O)[O-])c(NCc3ccco3)n2)cc1C` was tested, and the “activity change, negative = inhibition” value was inactive: -15.3%. For `Cc1cc(C)cc(-c2nnc(SCC(=O)N3CCN(C(=O)c4ccco4)CC3)o2)c1`, the Potency was inconclusive [inhibitor, single point]. `CC1(C)Cc2c(C#N)c(N3CCN(C(=O)c4ccccc4Cl)CC3)nc(-c3ccco3)c2CS1` was tested, and the Potency was inconclusive [inhibitor, single point]. For `COC(=O)c1cc2c(ccn2-c2ccc(F)cc2)n1Cc1ccc(OC(C)=O)cc1`, the Potency was inconclusive [inhibitor, partial curve]. In the case of `Cc1cc(/C=C2\C(=O)NC(=O)N(c3ccc(Br)cc3)C2=O)c(C)n1-c1cc(C(=O)O)cc(C(=O)O)c1`, the Potency is reported as inconclusive [inhibitor, single point]. In the case of `OCC1(Cc2ccc(Cl)cc2)CCN(CCCc2ccccc2)CC1`, the “activity change, negative = inhibition” value is reported as inactive: -26%. With `CN(C)c1ccc(NC(=O)CN2C(=O)CN=C(c3ccccc3)c3cc(Cl)ccc32)cc1` the Potency was inconclusive [inhibitor, single point]. For `O=C(CC1SC(=Nc2ccccc2)N(CCCO)C1=O)Nc1ccc(Cl)cc1` (stereo unspecified), the Potency was inconclusive [inhibitor, single point]. `Cc1c(NC(=O)c2ccc(Br)s2)c(=O)n(-c2ccccc2)n1C` was tested, and the Potency was inconclusive [inhibitor, partial curve]. For `COc1ccc2c(c1OC)C(=O)N(c1ccc(C)cc1)C2`, the Potency was inconclusive [inhibitor, full curve, poor fit]. For `COc1cc(C)c(NC(c2ccccc2)c2ccccc2)cc1OC`, the Potency was active: 35.5 µM. For `COc1cccc(-c2nnc(NC(=O)c3ccc(S(=O)(=O)N(CC(C)C)CC(C)C)cc3)o2)c1`, the Potency was inconclusive [inhibitor, partial curve, poor fit]. In the case of `O=C(NN1CCOCC1)c1cccc(COc2cccc(Br)c2)c1`, the “activity change, negative = inhibition” value is reported as inactive: 22.6%. With `CNC(=O)c1cc2c(=O)n3cccc(C)c3nc2n(C(C)C)c1=N` the Potency was inconclusive [inhibitor, single point]. `O=C(c1ccc(CNS(=O)(=O)c2ccccc2)cc1)N1CCC2(CC1)OCCO2` was tested, and the “activity change, negative = inhibition” value was inactive: 1.03%. For `O=C(COC(=O)C1CCCCC1)Nc1ccc(N2CCCCC2)cc1`, the Potency was inconclusive [inhibitor, partial curve]. In the case of `O=C(Nc1cccc(NC(=O)C2CCCO2)c1)C1CCCO1` (stereo unspecified), the “activity change, negative = inhibition” value is reported as inactive: 16.6%. With `COc1ccc(-c2oc3ccc(N4CCOCC4)cc3c2/C=C/c2ccc(OC)c(OC)c2)cc1` the “activity change, negative = inhibition” value was inactive: -0.361%. In the case of `c1cc(Nc2cccc3nccnc23)c2nccnc2c1`, the “activity change, negative = inhibition” value is reported as inactive: 46.7%. For `O=C1CCc2cc(S(=O)(=O)N3CCCC3C(=O)N3CCN(c4ccccc4)CC3)ccc2N1` (stereo unspecified), the “activity change, negative = inhibition” value was inactive: -3.01%. In the case of `Cc1ccccc1NS(=O)(=O)c1ccc(OCC(=O)NCC2CCCO2)cc1` (stereo unspecified), the Potency is reported as inconclusive [inhibitor, single point]. For `Cc1nnc(SCC(=O)N2c3ccccc3C(C)(c3ccccc3)CC2(C)C)s1` (stereo unspecified), the “activity change, negative = inhibition” value was inactive: -3.31%. In the case of `CN(c1cccc(F)c1)c1cc2c(c3c1ccn3C)C1CCC2C1` (stereo unspecified), the Potency is reported as inconclusive [inhibitor, single point]. For `Cn1cccc1/C=C1\CCC/C(=C\c2cccn2C)C1=O`, the Potency was inconclusive [inhibitor, partial curve]. In the case of `C/C(=N\NC(=O)C(C)Sc1ccccc1)C(C)(C)C` (stereo unspecified), the Potency is reported as inconclusive [inhibitor, partial curve]. In the case of `CN(C)c1ccc(NC(=O)CSc2nc3ccccc3c(=O)n2C2CCCCC2)cc1`, the Potency is reported as inconclusive [inhibitor, full curve]. With `Cc1cc(C(C)(C)C)ccc1OCCCCN1CCCC1` the Potency was inconclusive [inhibitor, single point]. `CCCN(CCC)S(=O)(=O)c1ccc(C(=O)Nc2ccc(OCC(=O)N3CCOCC3)cc2)cc1` was tested, and the “activity change, negative = inhibition” value was inactive: -12%. With `Cc1[nH]c(=S)[nH]c(=O)c1Cc1ccccc1` the “activity change, negative = inhibition” value was inactive: 15.4%. For `CSCC[C@@H](CO)NC(=O)[C@H]1O[C@@H](n2ccc(N)nc2=O)[C@H](O)[C@@H]1O`, the “activity change, negative = inhibition” value was inactive: 4.56%. `Nc1n[nH]c(-c2ccc(F)cc2)n1` was tested, and the Potency was inconclusive [inhibitor, single point]. `COC(=O)c1sc(NC(=O)c2csc3c2CCCC3)nc1C` was tested, and the Potency was inconclusive [inhibitor, single point]. For `CC1=C/C(=N\OS(=O)(=O)c2ccccc2)C=CC1=O`, the Potency was inconclusive [inhibitor, single point]. In the case of `CC1CN(Cc2c(O)ccc3c2oc(=O)c2ccccc23)CC(C)O1` (stereo unspecified), the Potency is reported as inconclusive [inhibitor, partial curve]. In the case of `CC1CCCN(C(=O)c2ccc3c(c2NCCO)C(=O)c2ccccc2C3=O)C1` (stereo unspecified), the Potency is reported as inconclusive [inhibitor, single point]. With `CN(C)c1ccc(-c2ccnc3c2CC(C)(C(=O)Nc2cccc(Oc4ccccc4)c2)O3)cc1` (stereo unspecified) the Potency was inconclusive [inhibitor, partial curve]. In the case of `O=C(N/N=C/c1cccs1)c1ccc(-n2cccc2)cc1`, the Potency is reported as inconclusive [inhibitor, single point]. In the case of `CN(C)c1ccc(C(CN)c2c[nH]c3ccccc23)cc1` (stereo unspecified), the Potency is reported as inconclusive [inhibitor, single point]. With `CC(C)(C)c1ccc2c(c1)C(=O)c1ccccc1C2=O` the Potency was inconclusive [inhibitor, partial curve]. For `CCC(C(=O)NCCCN1CCN(C)CC1)n1nc(C)n2c(cc3occc32)c1=O` (stereo unspecified), the “activity change, negative = inhibition” value was inactive: -1.8%. `CCOCc1c(C(=O)N2CCN(CCOc3ccc(Cl)cc3)CC2)oc2ccccc12` was tested, and the Potency was inconclusive [inhibitor, partial curve]. `COc1ccc(S(=O)(=O)CCC(=O)NCc2ccc(C)o2)cc1` was tested, and the “activity change, negative = inhibition” value was inactive: 0%. With `CCN(CC)c1cc2c(c3c1ccn3C)C1CCC2C1` (stereo unspecified) the Potency was inconclusive [inhibitor, single point]. With `O=C(CC1SC(=Nc2ccc(O)cc2)NC1=O)Nc1ccccc1` (stereo unspecified) the Potency was inconclusive [inhibitor, full curve, poor fit]. For `O=[N+]([O-])c1cc(/C=N/O)ccc1N1CCCC1`, the “activity change, negative = inhibition” value was inactive: -5.83%. For `CC(C)NC(=O)CN1CCN(c2ncccn2)CC1`, the Potency was inconclusive [inhibitor, single point]. `COCCN(C(=O)Cc1cccs1)C(C(=O)NCc1ccc(OC)cc1)c1ccc(C)cc1` (stereo unspecified) was tested, and the “activity change, negative = inhibition” value was inactive: -1.13%. `CC(C)(C)c1ccc(C(=O)N/N=C/c2ccccn2)cc1` was tested, and the “activity change, negative = inhibition” value was inactive: 73.1%. With `CCN(CC)c1ccc(/C=N/N2CCN(Cc3ccc(C)cc3C)CC2)c(O)c1` the Potency was inconclusive [inhibitor, partial curve].
